Laboratory results published in the supplement of paper PMC10126150.
Sequences with one replicate were seen in a single cluster, so their values are uncertain.

System: ATP
Assay: switch fluorescence ratio, 500 uM ATP over buffer (Cy3 cluster intensity, sum of 5 cycles each) (fold (ratio)); higher = stronger signal-on switching upon ATP binding; sequences stand for … in TCGTCGGCAGCGTCAGATGTGTATAAGAGACAGTTTTTTTTTTTTTTTTTTTTTTTTT…TC
Conditions: aptamer strand: ATP DNA aptamer (quencher-CACCTGGGGGAGTATTGCGGAGGAAGG + anchor), 100 nM annealed; ATP concentration: 500 uM; one replicate
Outline: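 Imaging in selection buffer was followed by imaging after 15 min with 500 uM ATP at 22 °C, for Cy3-labelled switching-strand clusters annealed to 100 nM quencher-labelled ATP aptamer on a modified Illumina MiSeq flow-cell. Five of these buffer/ATP cycles ran, separated by NaOH stripping and re-annealing. The fluorescence ratio per cluster is summed target-cycle over summed buffer-cycle Cy3 intensity, averaged per switch-domain sequence; clusters outside 100-1000 RFU were removed.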
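Also: ATP exposure 15 min at 22 °C before imaging.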

Row | Sequence | switch fluorescence ratio
1 | TAGGGCATGG | 1.07
2 | GGAGGCCGGG | 1.02
3 | TATTGTTTCC | 1.14
4 | ATTGTATGG | 1.04
5 | ATTTTACGAG | 0.998
6 | TTCGTTGGGC | 0.95
7 | AGGAATCTGT | 0.965
8 | ATACAAGTTT | 1.04
9 | ACAATACTAA | 1.18
10 | TACAAACTTT | 1.06
11 | CTGCTTCGAG | 0.996
12 | ATTATGTAGC | 0.98
13 | TGTTACAGTA | 1
14 | CCTAGGGGCT | 1.09
15 | AGTCGCTAGG | 0.985
16 | TATGGCCGGC | 0.928
17 | CGGGAACAGT | 0.967
18 | TAAACCGGCG | 1.16
19 | ATTCTATTTG | 0.946
20 | CCTTGTCGAG | 1.02
21 | TGGCCAGGGC | 0.999
22 | TCAGACGGAT | 1.02
23 | TTAATCTTGA | 1.14
24 | AGGTTGCTT | 0.991
25 | TACGTAATT | 1.2
26 | AGGAGGCGGT | 0.972

Row | Sequence | switch fluorescence ratio
27 | GTATGATGTT | 0.989
28 | TTGGTTCTC | 0.955
29 | GCCGTGTGCA | 0.988
30 | TCTGGGTATA | 1.01
31 | ATTTGTATAC | 1.01
32 | TGAAACTGAG | 1.07
33 | ACTAAAACTT | 1.09
34 | AGACTAGGGG | 0.962
35 | GTATTCGGGG | 0.974
36 | GTCCTCCTTT | 1.03
37 | CGGTCTAATC | 1.05
38 | CTTGCGACTT | 0.984
39 | CAGTGGACAA | 1.04
40 | CTAAGTTGTA | 1
41 | GGTGGCGGTG | 0.981
42 | CTGACTTGT | 1.02
43 | CTAACCGGCC | 2.09
44 | ATTTATCTGC | 1.04
45 | AGCGCCTGCG | 0.992
46 | ATCGCTGCAG | 1.03
47 | CAGCATCAAA | 1.02
48 | TAGCTACGCA | 1.19
49 | CAACTACGAT | 1.06
50 | ATACACGCGT | 1
51 | GCATAAAACG | 1.02
52 | CTCAGGATGG | 1.01

Row | Sequence | switch fluorescence ratio
53 | GCAGACGACT | 1.06
54 | GGAGCCATAT | 1.57
55 | GGAACGGAAT | 1.09
56 | TAAAGCCTTC | 1.31
57 | GAGTGCGAGC | 1.02
58 | ACGGGGCTAC | 1.42
59 | TTTTGAACAT | 0.995
60 | TGGAATATTA | 0.971
61 | CCCGTTTAGG | 0.988
62 | TGCAATGTAA | 0.997
63 | TGGTCCTGTG | 0.991
64 | GTTAAACGTC | 0.888
65 | CGCCTCGTGG | 0.96
66 | GGTGTCTACG | 0.997
67 | AATAAGGACA | 1.03
68 | ATAGGCTAAT | 1.01
69 | CGGTGCTACA | 0.992
70 | CTGCGCAGGG | 1.08
71 | GCGCTGCAGG | 0.977
72 | GGTTTCGGC | 0.989
73 | TCTTTAGCCA | 0.967
74 | TGGATGGGG | 0.983
75 | GGGAGTACCT | 1.02
76 | TCTTGAACCA | 0.983
77 | GATGGACGCT | 1.03
78 | CAAAAGATT | 0.997

Row | Sequence | switch fluorescence ratio
79 | CATGGATGGG | 1.01
80 | ACTCAGTAGT | 1.05
81 | TAGGTGTGGT | 0.949
82 | CACCCTGCTC | 1.05
83 | TATATAGCAG | 1.01
84 | GAATATAGAA | 1.01
85 | GTATGAGACG | 0.973
86 | GGAGGTGGCA | 0.969
87 | ACGGGATACT | 2.61
88 | CGAAAACACG | 1
89 | CGTGAGGTGC | 1.11
90 | AAAATGTTGG | 1.01
91 | TGCCATCCTT | 1.11
92 | TCAAGAGATT | 0.978
93 | TGGGAATCAA | 0.971
94 | TTCGTTTTG | 1
95 | CCTGTGAGGC | 1.1
96 | CTTCTCAATG | 1.07
97 | CTTTATCATA | 1.01
98 | CCGCTAAGTA | 1.78
99 | AAATGGGGT | 1.04
100 | CAGAGGGATT | 1.34
101 | TGTCACGTGC | 0.991
102 | CCGGACGAAT | 1.25
103 | TCCTGTCCTT | 1.01
104 | TCGAGGAAGG | 1.02

Row | Sequence | switch fluorescence ratio
105 | GGTGCTTACT | 1.04
106 | TGGTAGCCTT | 0.999
107 | AGGGACTTCT | 1.06
108 | TTGCACGG | 1
109 | CTGAAAGAAC | 1.03
110 | TCATGACGGG | 0.99
111 | GCCATAGGGG | 1.06
112 | ACGCAGGGCT | 1.3
113 | TATCGCCAGT | 1.02
114 | GCGGAGGATA | 1.03
115 | GTAAGTGTCA | 0.985
116 | GCTGAGTTAT | 0.972
117 | GAGGGAGGTT | 1.02
118 | TAATTGAGGT | 0.977
119 | CGTTCTGGCG | 0.921
120 | ATCAGCGGAC | 2.37
121 | TCAGTCGCTA | 1.08
122 | GATTTGTCTG | 1.04
123 | GCTGTCCGAA | 1.03
124 | GACGTTGCAT | 1.01
125 | ATTTCGATAC | 2.38
126 | CTGCTAAACG | 1
127 | TCATTAGAAC | 0.962
128 | CATTTCTTCA | 1.03
129 | TAAATTCTTT | 0.992
130 | GGTTAGTGAA | 1

Row | Sequence | switch fluorescence ratio
131 | AACATGCCGA | 1.09
132 | AGACATGGCT | 0.995
133 | CAATGAGCG | 0.967
134 | TGCAAGATGA | 1.11
135 | TGGACTTAGT | 1
136 | AGACCGAGGG | 1.03
137 | TGAGGGGGTC | 0.994
138 | GAACGGTGCA | 0.955
139 | ACGTTGGACC | 1.09
140 | GGGGATGACA | 0.938
141 | ATCCATCGCT | 1.11
142 | AAGGTCAAA | 0.965
143 | AATAGGGCGC | 1.03
144 | AAACAAATTA | 0.991
145 | AATTTGTCAA | 0.995
146 | TTCCACTAAC | 1.15
147 | GTGGAGTACG | 1
148 | TGAAAGGGG | 1.01
149 | ATAGGTGCTG | 1.15
150 | GTGCAGAGTT | 1.02
151 | CAAAGCAGTA | 1.1
152 | AGTGGGCTTA | 1.06
153 | AGAAGCACCA | 1.12
